# Assay results taken from the supplement of paper PMC9990464.
# Counter-ions that a name gives are not always drawn. ± gives the standard deviation of the averaged measurements. The list shows a part of the results. Many values rest on one well or one pass, so single values are uncertain.
# Assays:
# Assay in all cases: area under viability curve (10 nM-1 µM), viability relative to solvent or trametinib-only control (AUC (arbitrary, % viability x concentration range)); higher = less growth inhibition (more viable cells)
# KCNR = conditions: 72 h compound exposure (96 h after seeding) h
# Method: (§1)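 Four neuroblastoma cell lines (KCNR, SKNBE, SJNB8, SKNAS) were seeded in 384-well plates. At 24 h, 1 µM trametinib or DMSO was added, followed by library compounds at 10 nM, 100 nM and 1 µM. Viability was read by MTT at 96 h and normalised to solvent-treated cells (DMSO arm) or to trametinib-only cells (trametinib arm). The area under the 3-point viability curve was computed in GraphPad Prism; units are as given (approx. 100000 = no effect).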
# SJNB8 = conditions: 72 h compound exposure (96 h after seeding) h; trametinib co-treatment 0 µM
# Method: as §1
# SKNAS = conditions: 72 h compound exposure (96 h after seeding) h
# Method: as §1
# SKNBE = conditions: 72 h compound exposure (96 h after seeding) h
# Method: as §1
# 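Note: KCNR is a neuroblastoma cell line carrying an ALK mutation, in this DMSO arm without trametinib, viability was normalised to solvent-treated cells.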
SMILES,area under viability curve (KCNR; trametinib co-treatment 0 µM),area under viability curve (KCNR; trametinib co-treatment 1 µM),area under viability curve (SJNB8),area under viability curve (SKNAS; trametinib co-treatment 0 µM),area under viability curve (SKNAS; trametinib co-treatment 1 µM),area under viability curve (SKNBE; trametinib co-treatment 0 µM),area under viability curve (SKNBE; trametinib co-treatment 1 µM)
CNC(=O)c1cc(Oc2ccc(NC(=O)Nc3ccc(Cl)c(C(F)(F)F)c3)c(F)c2)ccn1 [Regorafenib],96600,96800,90000,83400,92800,109000,96100
CC[C@@]1(O)C(=O)OCc2c1cc1n(c2=O)Cc2cc3c(CN(C)C)c(O)ccc3nc2-1 [Topotecan HCl],10700,9320,60400,40500,61400,36300,16700
CO[C@@]12[C@H](COC(N)=O)C3=C(C(=O)C(C)=C(N)C3=O)N1C[C@@H]1N[C@@H]12 [Mitomycin C],43700,26000,64500,89400,76500,61300,42100
NC(=O)c1ccncc1 [Isonicotinamide],101000,100000,83400,103000,101000,102000,94200
O=C1c2ccccc2C(=O)c2c(NCCc3ccc(O)cc3)ccc(NCCc3ccc(O)cc3)c21,101000,104000,106000,112000,94400,113000,103000
O=NN(CCCl)C(=O)NCCCl [Carmustine],101000,107000,90800,83000,101000,108000,114000
CC(C)(C#N)c1cc(Cn2cncn2)cc(C(C)(C)C#N)c1 [Anastrozole],98500,99800,75600,72700,95300,92700,95800
COc1cc(CCc2cc(NC(=O)c3ccc(N4CC(C)NC(C)C4)cc3)n[nH]2)cc(OC)c1 (stereo not drawn),91600,80000,90600,116000,94300,88300,87700
NC(=O)c1cccnc1 [Nicotinamide],104000,99600,103000,118000,102000,106000,105000
Nc1nc(Cl)nc2c1ncn2[C@H]1C[C@H](O)[C@@H](CO)O1 [Cladribine],79600,80700,62300,39100,73700,91200,93000
O=C(O)CCCc1ccccc1 [Phenylbutyrate·Na],102000,98700,90100,113000,104000,103000,108000
CN(C)CCOc1ccc(/C(=C(/CCCl)c2ccccc2)c2ccccc2)cc1 [Toremifene citrate],98200,97500,61000,60200,98200,72500,91200
CCNC(=O)[C@@H]1CCCN1C(=O)[C@H](CCCNC(=N)N)NC(=O)[C@H](CC(C)C)NC(=O)[C@@H](CC(C)C)NC(=O)[C@H](Cc1ccc(O)cc1)NC(=O)[C@H](CO)NC(=O)[C@H](Cc1c[nH]c2ccccc12)NC(=O)[C@H](Cc1c[nH]cn1)NC(=O)[C@@H]1CCC(=O)N1 [Leuprolide acetate],102000,101000,97600,119000,96500,115000,99900
CCc1c2c(nc3ccc(OC(=O)N4CCC(N5CCCCC5)CC4)cc13)-c1cc3c(c(=O)n1C2)COC(=O)[C@]3(O)CC [Irinotecan HCl (trihydrate)],81700,62300,85400,79600,104000,97700,93600
O=C(c1cc(Cc2n[nH]c(=O)c3ccccc23)ccc1F)N1CCN(C(=O)C2CC2)CC1 [Olaparib],106000,108000,82900,103000,104000,98800,103000
O=C1CCc2c(ccc3ccccc23)O1 [Splitomicin],103000,99600,92600,120000,95500,107000,97600
CCCS(=O)(=O)Nc1ccc(F)c(C(=O)c2c[nH]c3ncc(-c4ccc(Cl)cc4)cc23)c1F [Vemurafenib],108000,104000,67900,102000,102000,84600,104000
C[C@]12CC[C@H](O)CC1=CC[C@@H]1[C@@H]2CC[C@]2(C)C(c3cccnc3)=CC[C@@H]12 [Abiraterone],106000,102000,92000,124000,98900,106000,122000
C[C@@H](Oc1cc(-c2cnn(C3CCNCC3)c2)cnc1N)c1c(Cl)ccc(F)c1Cl [Crizotinib],61600 ± 7200,61300 ± 4600,102000 ± 8900,98300 ± 36000,88550 ± 280,101000 ± 2800,92470 ± 770
COc1cccc2c1C(=O)c1c(O)c3c(c(O)c1C2=O)C[C@@](O)(C(=O)CO)C[C@@H]3O[C@H]1C[C@H](N)[C@H](O)[C@H](C)O1 [Adriamycin],8620,5420,62600,39800,33200,56100,13600

SMILES,area under viability curve (KCNR; trametinib co-treatment 0 µM),area under viability curve (KCNR; trametinib co-treatment 1 µM),area under viability curve (SJNB8),area under viability curve (SKNAS; trametinib co-treatment 0 µM),area under viability curve (SKNAS; trametinib co-treatment 1 µM),area under viability curve (SKNBE; trametinib co-treatment 0 µM),area under viability curve (SKNBE; trametinib co-treatment 1 µM)
O=S(=O)(c1cccc2cnccc12)N1CCCNCC1 [Fasudil HCl],105000,98600,95100,107000,99700,107000,98400
Cc1ccc(C(=O)c2cc(/C=C/C(=O)NO)n(C)c2)cc1,99800,96800,74000,89200,95300,98700,96900
CC(C)C(=O)SCCCCCCC(=O)Nc1nc(-c2ccccc2)cs1,99000,102000,84400,91700,103000,98200,93700
Nc1cccc2c1CN(C1CCC(=O)NC1=O)C2=O (stereo not drawn) [Lenalidomide],105000,95000,107000,93800,98200,104000,99500
NC(=O)C1CCCc2c1[nH]c1ccc(Cl)cc21 (stereo not drawn) [Selisistat],104000,104000,89300,117000,98200,97400,94000
CC(C)C[C@H](NC(=O)[C@@H](COC(C)(C)C)NC(=O)[C@H](Cc1ccc(O)cc1)NC(=O)[C@H](CO)NC(=O)[C@H](Cc1c[nH]c2ccccc12)NC(=O)[C@H](Cc1cnc[nH]1)NC(=O)[C@@H]1CCC(=O)N1)C(=O)N[C@@H](CCCNC(=N)N)C(=O)N1CCC[C@H]1C(=O)NNC(N)=O [Goserelin acetate],96700,102000,101000,97200,96500,99200,92900
COc1cccc2c1C(=O)c1c(O)c3c(c(O)c1C2=O)C[C@@](O)(C(=O)CO)C[C@@H]3O[C@H]1C[C@H](N)[C@H](O[C@@H]2CCCCO2)[C@H](C)O1 [Pirarubicin],31500,9890,61500,51300,61700,49200,30900
O=C(CCCCCN1C(=O)c2cccc3cccc(c23)C1=O)NO [Scriptaid],57700,43600,78600,53300,63400,88700,63000
Nc1nc(Cl)nc2c1ncn2[C@@H]1O[C@H](CO)[C@@H](O)[C@@H]1F [Clofarabine],90700,94100,59700,58900,68900,108000,113000
Cc1ccc(Nc2nccc(N(C)c3ccc4c(C)n(C)nc4c3)n2)cc1S(N)(=O)=O [Pazopanib],105000,102000,110000,123000,106000,115000,93200
COC(=O)[C@]12CCC(C)(C)C[C@H]1[C@H]1C(=O)C=C3[C@@]4(C)C=C(C#N)C(=O)C(C)(C)[C@@H]4CC[C@@]3(C)[C@]1(C)CC2 [Bardoxolone methyl],48900,42600,54500,40700,75500,35200,33900
Oc1cc(O)cc(/C=C/c2ccc(O)c(O)c2)c1 [Piceatannol],103000,103000,89900,117000,100000,103000,93100
CN(C)C/C=C/C(=O)Nc1cc2c(Nc3ccc(F)c(Cl)c3)ncnc2cc1O[C@H]1CCOC1 [Afatinib],97800,97700,109000,133000,99000,108000,99100
COc1cc(Nc2c(C#N)cnc3cc(OCCCN4CCN(C)CC4)c(OC)cc23)c(Cl)cc1Cl [Bosutinib isomer 1],101000,106000,87800,112000,104000,95400,100000
Cc1cc(NC(=O)Nc2ccc(N(C)C)cc2)c2cc(F)cc(F)c2n1,101000,96300,96500,98900,96600,101000,102000
Nc1ncn([C@H]2C[C@H](O)[C@@H](CO)O2)c(=O)n1 [Decitabine],76100,81000,86000,72200,89500,94900,77900
N#CCNC(=O)c1ccc(-c2ccnc(Nc3ccc(N4CCOCC4)cc3)n2)cc1 [Momelotinib],91500,97400,73900,67600,94800,77800,84100
CN1CCN(c2ccc3nc(-c4c(N)c5c(F)cccc5[nH]c4=O)[nH]c3c2)CC1 [Dovitinib lactate],95400,98700,87700,110000,102000,100000,105000
CC[C@@]1(O)C[C@H](O[C@H]2C[C@H](N(C)C)[C@H](O[C@H]3C[C@H](O)[C@H](O[C@H]4CCC(=O)[C@H](C)O4)[C@H](C)O3)[C@H](C)O2)c2c(cc3c(c2O)C(=O)c2c(O)cccc2C3=O)[C@H]1C(=O)OC [Aclacinomycin A HCl],92600,83000,82000,47500,96700,83400,76700
